Among all 48,000 compounds or so, about 550 (1.1%) were called active. Roughly 4% stayed inconclusive and do not appear here. Cut-off read from the data, not from the text of the source: active = potency below about 15 µM; inconclusive = mostly about 16 µM to 33 µM; inactive = weaker than that. The list shows a part of the results.
Biological target: Lysosomal acid glucosylceramidase (Homo sapiens) (UniProt P04062)
Assay: Glucocerebrosidase;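 note: the screen sought inhibitors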
Conditions: purified enzyme, resorufin glucoside fluorescence (screen aimed at inhibitors), 20 min
Procedure, shortened: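 Compounds titrated against 0.2 nM normal enzyme, 30 uM resorufin beta-D-glucopyranoside substrate, citrate/phosphate buffer with taurocholate and tween-20, pH 5.9. Reaction ran 20 min at room temperature; fluorescence (Ex 548/Em 600) gave AC50.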
Potency is the fitted concentration of half-maximal effect.

UniProt P04062, sequence (P04062 whole entry, looked up): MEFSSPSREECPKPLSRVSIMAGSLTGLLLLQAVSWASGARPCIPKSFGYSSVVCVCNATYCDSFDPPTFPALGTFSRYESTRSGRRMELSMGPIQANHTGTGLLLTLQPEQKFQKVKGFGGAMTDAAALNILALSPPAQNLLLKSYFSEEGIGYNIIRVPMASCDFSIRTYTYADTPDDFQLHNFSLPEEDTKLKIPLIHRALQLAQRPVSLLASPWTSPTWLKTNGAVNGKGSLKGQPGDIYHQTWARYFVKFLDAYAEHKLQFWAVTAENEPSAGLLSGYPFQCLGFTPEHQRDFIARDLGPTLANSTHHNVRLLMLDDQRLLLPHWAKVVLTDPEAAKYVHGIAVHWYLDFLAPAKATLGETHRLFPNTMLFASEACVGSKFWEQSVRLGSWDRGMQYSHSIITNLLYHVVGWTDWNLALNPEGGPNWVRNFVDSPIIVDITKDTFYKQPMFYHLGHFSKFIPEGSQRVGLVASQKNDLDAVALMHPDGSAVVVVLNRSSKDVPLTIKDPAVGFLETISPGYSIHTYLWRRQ

Potency, inactive:
Nc1nonc1-c1noc(-c2ccccc2Br)n1 > 76.9 µM, COC(=O)c1ccc(Cn2cnc3c(cnn3-c3ccc(Cl)cc3)c2=O)o1 > 76.9 µM, O=C(CSc1nc2ccsc2c(=O)n1NC(=O)c1ccccc1)Nc1nccs1 > 76.9 µM, Cc1cccc(C)c1NC(=O)CC(NCc1ccco1)C(=O)O (centres undefined) > 76.9 µM, CC(c1ccccc1)n1c(-c2ccncc2)n[nH]c1=S (centres undefined) > 76.9 µM, Cn1c(=O)[nH]c2cc3ccccc3cc21 > 76.9 µM, CCOC(=O)c1coc(CNC(=O)c2c(C)oc3c2CCCC3)c1 > 76.9 µM, COc1cccc(NC(=O)c2ocnc2C)c1 > 76.9 µM, CC(C)CNS(=O)(=O)c1ccc(CCC(=O)N2CCN(Cc3ccc4c(c3)OCO4)CC2)cc1 > 76.9 µM, O=C(c1ccc(N2CCOCC2)cc1)c1cccs1 > 76.9 µM, O=C(Nc1ccc(-c2noc(COc3ccccc3Cl)n2)cc1)c1ccco1 > 76.9 µM, COc1ccc(-n2cnnc2SCc2ncc(-c3ccccc3)o2)cc1 > 76.9 µM, COC(=O)c1ccc(CSc2nc(-c3ccco3)cc(C(F)(F)F)n2)o1 > 76.9 µM, Nc1nc(-c2c[nH]c3ccccc23)cs1, Cc1cc(C)c2c(c1)NC(=O)C2(O)CC(=O)c1cccs1 (centres undefined) > 76.9 µM, CCOc1ccccc1N(CC(=O)O)S(=O)(=O)c1ccccc1 > 76.9 µM, CN(C)C(=O)COc1ccc2cc(-c3ccccc3)c(=O)oc2c1 > 76.9 µM, CN(C(=O)c1ccno1)c1nnc(-c2ccccn2)s1 > 76.9 µM, O=C(OCc1cccc2ccccc12)c1ccc2c(=O)[nH]c(CN3CCOCC3)nc2c1 > 76.9 µM, O=C(Nc1ccc(S(=O)(=O)N2CCOCC2)cc1)c1ccc(Br)o1 > 76.9 µM, CCOc1ccccc1NC(=O)CSc1nnc(-c2cnccn2)n1CC > 76.9 µM, O=c1c(-c2ccccc2)c(O)nc2ccccn12 > 76.9 µM, Oc1ccc(CNc2ccc(F)cc2)c2cccnc12 > 76.9 µM, c1ccc(Cn2nnc3c(N4CCc5ccccc54)ncnc32)cc1 > 76.9 µM, CCOC(=O)N1CCN(C(=O)COc2ccc3c(c2)C(=O)CC2(CCN(C(C)=O)CC2)O3)CC1 > 76.9 µM, O=C(O)CSc1nnc(Cn2c(=O)sc3ccccc32)n1-c1cccc(Cl)c1 > 76.9 µM, Cc1ccc(C(=O)NC2CCN(C(=O)N3CCOCC3)CC2)cc1 > 76.9 µM, CC1CCCC(NC(=O)c2cn(C)c3ccc(S(=O)(=O)N4CCCC4)cc3c2=O)C1C (centres undefined) > 76.9 µM, O=C(NCCOC(=O)C1COc2ccccc2O1)c1cccnc1 (centres undefined) > 76.9 µM, Cn1c(SCC(=O)N2c3ccccc3Sc3ccc(Cl)cc32)nnc1-c1ccco1 > 76.9 µM, C=C(C)Cn1c(CCNC(=O)CC)nc2ccccc21 > 76.9 µM, Cc1ccc(-c2c3c(=O)n(C)c(=O)n(C)c3cn2CCCN2CCOCC2)cc1 > 76.9 µM, COC(=O)Nc1nc2c(C)cccc2s1 > 76.9 µM, Cc1c(-c2ccc(F)cc2)nc(N)c(C#N)c1-c1ccco1 > 76.9 µM, COc1ccc2oc(=O)c(C(=O)N3CCc4ccccc43)cc2c1 > 76.9 µM, Cc1ccc(Cl)cc1N(CC(=O)NC1CCCCC1)S(C)(=O)=O > 76.9 µM, COC(=O)CN(c1cccc(OC)c1)S(C)(=O)=O > 76.9 µM, Cc1ccc(S(=O)(=O)c2c(N)n(NC(=O)C3CC3)c3nc4ccccc4nc23)cc1 > 76.9 µM, CCOC(=O)C1CCN(C(=O)Nc2ccc3oc(C)nc3c2)CC1 > 76.9 µM, CCN1C(=O)CC(N2CCC(Nc3ccc(F)cc3)CC2)C1=O (centres undefined) > 76.9 µM, CCCc1nnc(SCC(=O)Nc2ccc(OCC)cc2)n1N > 76.9 µM, O=C(O)C1CC1c1ccc(Br)cc1 (centres undefined) > 76.9 µM, CCOc1ccc2cc(C#N)c(SCC(=O)N3CCOCC3)nc2c1 > 76.9 µM, C=CCc1cccc(C2Nc3ccccc3C(=O)N2O)c1O (centres undefined) > 76.9 µM, O=C(NCc1ccccc1)NC(=O)c1ccccc1 > 76.9 µM, O=C(NC(=O)c1ccc(Cl)c(Cl)c1)OC1CCS(=O)(=O)C1 (centres undefined) > 76.9 µM, O=C(Oc1ccc2c(c1)CCC2)N1CCOCC1 > 76.9 µM, CCC(C)NS(=O)(=O)c1ccc(OCC(=O)NCc2cccnc2)cc1 (centres undefined) > 76.9 µM, O=C(CSc1nnc(-c2cccnc2)o1)c1cc2ccccc2oc1=O > 76.9 µM, COC(=O)[C@@H](NC(=O)NC(C)CCc1ccccc1)C(C)C (some centres undefined) > 76.9 µM, O=C(Nc1ccc2nc[nH]c2c1)c1ccco1 > 76.9 µM, O=C1c2ccncc2C(=O)N1C1CCCCC1 > 76.9 µM, COc1ccc(OC)c(NS(=O)(=O)c2cc(OC)ccc2OC)c1 > 76.9 µM, O=S(=O)(c1ccc(S(=O)(=O)N2CCN3CCCC3C2)cc1)N1CCCC1 (centres undefined) > 76.9 µM, C=CCn1c(N)cc(=O)nc1SCC(=O)NC(C)c1ccccc1 (centres undefined) > 76.9 µM, COc1cc(OC)cc(C(=O)OCc2cc3ccccc3[nH]c2=O)c1 > 76.9 µM, Nc1c(NCc2ccccc2F)c(=O)[nH]c(=O)n1Cc1ccccc1 > 76.9 µM, CCC(c1nnnn1Cc1ccccc1)N1CCN(C(=O)c2ccco2)CC1 (centres undefined) > 76.9 µM, Cc1nnc(NCCc2ccccc2)n(N)c1=O > 76.9 µM, CC(C)N(C=O)C1(C(=O)NC2CCCCC2)CCCCC1 > 76.9 µM, CCCn1c(SCC(=O)NC(=O)Nc2ccc(C)cc2C)n[nH]c1=O > 76.9 µM, O=C(Oc1ccc(N(Cc2cccs2)C2=NS(=O)(=O)c3ccccc32)cc1)c1ccco1 > 76.9 µM, Cc1ccc(NS(=O)(=O)c2ccc(CCC(=O)N3CCOCC3)cc2)cc1 > 76.9 µM, O=C(O)CN1CCN(Cc2ccccc2Cl)C1=O > 76.9 µM, CSc1nnc2c(n1)OC(c1cccn1C)N(C(C)=O)c1ccccc1-2 (centres undefined) > 76.9 µM, O=C(Nc1ccc(S(=O)(=O)N2CCc3ccccc32)cc1)c1ccc2c(c1)OCO2 > 76.9 µM, O=c1oc2ccccc2n1CSC1=NCCS1 > 76.9 µM, CC1(C(=O)O)CCC(C(=O)N2CCOCC2)C1(C)C (centres undefined) > 76.9 µM, CCOC(=O)c1nn(-c2ccccc2)c(=O)c(C#N)c1C > 76.9 µM, CCC(C)NC(=O)CSc1nc2n[nH]c(C)c2c(=N)n1-c1ccc(OC)cc1 (centres undefined) > 76.9 µM, O=C1C2CCCN2C(c2ccc(F)cc2)N1c1nccs1 (centres undefined) > 76.9 µM, CCOC(=O)CC(=O)CSc1ccc2nnc(-c3ccc(F)cc3)n2n1 > 76.9 µM, COc1cc(CN(C)CCc2ccccn2)cc(OC)c1OC > 76.9 µM, Cc1cc2ccccc2c(=O)n1CC(=O)NCC(=O)N1CCCC1 > 76.9 µM, CCCCOC(=O)C1=C(C)Nc2ncnn2C1c1cccc(OC)c1 (centres undefined) > 76.9 µM, CC(C)CSc1nc2c(c(=O)[nH]c(=O)n2C)n1CCc1ccccc1 > 76.9 µM, COC(=O)C(C(=O)OC)N1C(=O)CCC1=O > 76.9 µM, COc1ccc(S(=O)(=O)NCC(=O)N(CC(=O)NCC2CCCO2)c2c(C)cccc2C)cc1 (centres undefined) > 76.9 µM, O=C(O)CCn1ccnc1-c1ccccc1 > 76.9 µM, CCOc1nc(-c2ccccc2)ccc1-c1noc(-c2ccco2)n1 > 76.9 µM, CNC(=O)Cn1c(=O)n(C)c2ccccc21 > 76.9 µM, CC(=O)Nc1cc(OC(C)=O)c2nonc2c1OC(C)=O > 76.9 µM, CCOc1ccc(-c2nnc3sc(COc4ccc(C)cc4)nn23)cc1 > 76.9 µM, O=C(Nc1ccc(F)cc1)NC1(C(=O)NCc2ccco2)CCCCC1 > 76.9 µM, Cc1cccc(C(=O)NC2CCN(CC(=O)N3CCOCC3)CC2)c1 > 76.9 µM, CCOc1ccc(C(=O)C(c2ccccc2)N2CCOCC2)cc1 (centres undefined) > 76.9 µM, Cc1cc2c(N=O)c(NO)ccc2[nH]1 > 76.9 µM, CC(=O)NC(C)C12CC3CC(CC(C(=O)O)(C3)C1)C2 (centres undefined) > 76.9 µM, CCN(CC)S(=O)(=O)c1cccc2cc(C(=O)O)c(O)cc12 > 76.9 µM, COc1ccc(NC(=O)CSc2nnc(-c3ccccc3Cl)n2Cc2ccco2)c(OC)c1 > 76.9 µM, CCOCCCNC(=O)c1cn(C)c(=O)c2cc(OC)c(OC)cc12 > 76.9 µM, CC(C)C(c1nnnn1Cc1ccccc1)N1CCN(Cc2ccco2)CC1 (centres undefined) > 76.9 µM, O=C(c1cccs1)N1CCCc2ccccc21 > 76.9 µM, CCOc1ccccc1NC(=O)Cn1nnc(C(=O)Nc2ccc(C)cc2)c1N > 76.9 µM

Reference: PubChem BioAssay AID360 (National Center for Advancing Translational Sciences (NCATS), 2006)
